Source: PubChem BioAssay AID686979 (National Center for Advancing Translational Sciences (NCATS), 2013)
Hit rate of the full screen: of about 420,000 compounds, about 50,000 (12%) were called active. Inconclusive means that the source gave no clear call. Such entries were picked first, then a sample of the others. Calls come from the whole dose curve; as a rule, active = well fitted inhibition curve with a large enough effect; inconclusive = small, poorly fitted or top-dose-only effect; inactive = flat fitted curve, though single readings scatter. No potency is given beside an inconclusive call; the fits are too rough.

Assay: qHTS for Inhibitors of human tyrosyl-DNA phosphodiesterase 1 (TDP1): qHTS in cells in presence of CPT; note: nearly all actives have a fitted effect of over 55% in size
Details: chicken DT40 Tdp1-/-;hTDP1 cells + 20 nM CPT, ATP luminescence, 48 h; activity change, negative = growth inhibition: at 46.2 µM (top of the series) unless noted
How it was run: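 Chicken DT40 Tdp1-/- cells complemented with human TDP1, 400 cells/well, exposed to compounds plus 20 nM camptothecin for at least 48 h at 37 C; viability read as ATP content by CellTiter-Glo luminescence.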
% is set by controls: 0 for no effect and ±100 for the full control effect; potency is the fitted concentration of half-maximal effect; tags give direction and shape of the fitted curve.

SMILES	activity change, negative = growth inhibition	Potency
CCOc1cc(N2CCOCC2)c(OCC)cc1NC(=S)NCCCOC	inactive: -1.88%	
CCCC/C(O)=C1\C(=O)CCCC1=NCCc1c(C)[nH]c2ccccc12		inconclusive [inhibitor, single point]
CCn1cc(C(=O)NCCCN(CC(C)C)CC(C)C)c(=O)c2cc(S(=O)(=O)N3CCOCC3)ccc21	inactive: -2.34%	
COCCCNc1nc(N)c([N+](=O)[O-])c(Nc2cc(OC)ccc2OC)n1	inactive: -0.449%	
C[C@@H](CSc1ccccc1)CN1CC[C@H](O)CCC1=O		inconclusive [inhibitor, single point]
CCSc1nc(-c2ccc(OC)cc2)cc(-c2ccccc2)c1C#N		inconclusive [inhibitor, single point]
Cn1c(CN2CCN(c3cccc(Cl)c3)CC2)nc2ccccc21		inconclusive [inhibitor, single point]
O=c1cc(N2CCN(c3ccc(F)cc3)CC2)[nH]c(=O)n1-c1ccc(Br)cc1		inconclusive [inhibitor, partial curve]
CCc1nc(NCC2CCCN2CC)c2nnn(Cc3ccccc3F)c2n1 (configuration not stated)		inconclusive [inhibitor, single point]
Cc1cccc(N2CCN(C3CCCCC3NS(=O)(=O)c3ccccc3)CC2C)c1 (configuration not stated)		inconclusive [inhibitor, single point]
CCOc1ccccc1C(=O)N(Cc1ccc(C)o1)C1CCS(=O)(=O)C1 (configuration not stated)		inconclusive [inhibitor, single point]
COc1cc(/C=C2/SC(=S)N(CCC(=O)Nc3ccccc3)C2=O)cc(OC)c1OC	inconclusive: -32.7% [inhibitor]	
Cn1c(SCc2ccc(C(F)(F)F)cc2)nc2c([nH]c3ccccc32)c1=O		active: 9.2 µM
Cc1nc(NCc2ccco2)[nH]c(=O)c1CCC(C)C		inconclusive [inhibitor, partial curve]
Cc1ccc(C2CC(c3cccc(NS(C)(=O)=O)c3)=NN2S(C)(=O)=O)cc1 (configuration not stated)		inconclusive [inhibitor, single point]
COCCNC(=S)N1CCc2cc(OC)c(OC)cc2C1COc1ccc(F)cc1 (configuration not stated)	inconclusive: -35.8% [inhibitor]	
N=C(c1cccc([N+](=O)[O-])c1)N1CCCCC1		inconclusive [inhibitor, single point]
COc1ccc(NC2CCCCC2NS(=O)(=O)c2ccc(C)cc2)cc1 (configuration not stated)		inconclusive [inhibitor, single point]
Fc1ccc(NCc2nnc(SCc3ccccc3)o2)cc1		inconclusive [inhibitor, single point]
C[C@@H]1CN([C@H](C)CO)C(=O)c2cccc(NS(=O)(=O)c3cccs3)c2O[C@H]1CN(C)Cc1ccccc1		active: 11.6 µM
CN(c1cccc(Cl)c1)S(=O)(=O)c1cccc(C(=O)Nc2nc3ccccc3[nH]2)c1		active: 20.6 µM
CC(=O)N1CCN(C(=O)CSc2nnc(C)n2-c2ccccc2)CC1	inactive: -8%	
Cc1ncsc1CCOC(=O)C12CC3CC(CC(C3)C1)C2	inactive: -24.4%	
O=C(c1ccc2c(c1)N(Cc1ccc(F)cc1)CCS2)N1CCOCC1		inconclusive [inhibitor, single point]

SMILES	activity change, negative = growth inhibition	Potency
CN(C)c1ccc(C(CNS(=O)(=O)c2ccccc2)N2CCc3ccccc32)cc1 (configuration not stated)		inconclusive [inhibitor, single point]
CCC(C)NC(=S)N1CCN(C(c2ccccc2)c2ccccc2)CC1 (configuration not stated)		inconclusive [inhibitor, single point]
CCOc1ccc(S(=O)(=O)Nc2cccc(C(=O)N3CCN(c4ccccc4O)CC3)c2)cc1		inconclusive [inhibitor, single point]
COc1cc(C(=O)NCC(c2cccnc2)N2CCc3ccccc32)cc(OC)c1OC (configuration not stated)		inconclusive [inhibitor, single point]
COc1ccc(CNC(=O)Cc2csc(NC(=O)Nc3ccccc3OC)n2)cc1		inconclusive [inhibitor, single point]
CCN1CCN(c2cc(C)c3cc(NC(=S)N4CCOCC4)ccc3n2)CC1	inactive: 3.8%	
COC(=O)c1ccc(C(=O)OC)c(NC(=O)C2CCCO2)c1 (configuration not stated)	inactive: -10.8%	
CCc1ccc(NC(=O)CSc2nnnn2C)cc1	inactive: 7.58%	
O=S(=O)(Nc1ccccc1)C1CCCCC1	inactive: -7.17%	
CCCCOC(=O)CSc1nnc(-c2cc(OC)c(OC)c(OC)c2)o1	inactive: -4.73%	
O=c1[nH]c(NC2CCCCC2)nnc1Cc1ccccc1		inconclusive [inhibitor, full curve]
COC(=O)/C(=N/Nc1ccccc1C)N1CCCc2ccccc21	inactive: -27.6%	
CN1CCN(c2ncnc3ccc(-c4ccc5c(c4)OCO5)cc23)CC1		inconclusive [inhibitor, single point]
CCOCC(=O)N1CCc2ccccc21	inactive: -0.449%	
CCOc1ncccc1C(=O)OCC(=O)N1CCN(S(=O)(=O)c2ccc(Cl)cc2)CC1	inactive: -0.938%	
CN(C)CCNc1nc(-c2ccccc2CO)c2sccc2n1	inactive: -26.6%	
COc1ccc(CN(Cc2cc3cc(OC)c(OC)cc3[nH]c2=O)C(=O)NC2CCCCC2)cc1		inconclusive [inhibitor, partial curve]
C/C(=N/NC(=O)c1cccs1)c1cccc(NC(=O)C2CC2)c1		inconclusive [inhibitor, partial curve]
O=C(Nc1ccc(S(=O)(=O)N2CCCC2)cc1)c1ccc([N+](=O)[O-])cc1	inactive: 0.861%	
Cc1ccc([C@@H]2CC=C(C(=O)O)[C@H](c3ccc(C(C)(C)C)cc3)N2S(=O)(=O)c2ccc(C)cc2)cc1		inconclusive [inhibitor, single point]
CCOC(=O)C1=CCN(S(=O)(=O)c2ccc(Cl)cc2)C1c1ccccc1 (configuration not stated)		inconclusive [inhibitor, single point]
O=C(O)c1ccccc1C(=O)NCc1ccc(F)cc1	inactive: -6.25%	
COc1ccc2c(c1)-c1nc(/N=C/c3c(O)ccc4ccccc34)sc1CC2		inconclusive [inhibitor, single point]
